# Source: the supplement of paper PMC11741623
# This is one part of the list. Interaction screen of human proteins with wild-type SARS-CoV-2 proteins by split-DHFR complementation in yeast, 1 µg/mL methotrexate. Value = fitness of the pair (three or more lineages) minus that of the viral protein without a human partner, on a scale set by negative (0) and fused positive (1) controls, mean of up to three cultures; higher = more likely to interact. Active = false discovery rate below 0.05 (one-sided t-test) in at least one culture. Nearly all pairs are not hits, and differences among them are mostly noise (correlation between cultures about 0.3); most hits were seen in one culture only. Human sequences are the Swiss-Prot entries looked up by gene name; the clone may be another isoform. NSP2 values were corrected by the authors for a growth advantage. Listed are human proteins with a hit and a random twelfth of the others.
# B1: SAT2, Q96F10 (protein)
# chain: MASVRIREAKEGDCGDILRLIRELAEFEKLSDQVKISEEALRADGFGDNPFYHCLVAEILPAPGKLLGPCVVGYGIYYFIYSTWKGRTIYLEDIYVMPEYRGQGIGSKIIKKVAEVALDKGCSQFRLAVLDWNQRAMDLYKALGAQDLTEAEGWHFFCFQGEATRKLAGK
# B2: SFTPC, P11686 (protein)
# chain: MDVGSKEVLMESPPDYSAAPRGRFGIPCCPVHLKRLLIVVVVVVLIVVVIVGALLMGLHMSQKHTEMVLEMSIGAPEAQQRLALSEHLVTTATFSIGSTGLVVYDYQQLLIAYKPAPGTCCYIMKIAPESIPSLEALTRKVHNFQMECSLQAKPAVPTSKLGQAEGRDAGSAPSGGDPAFLGMAVSTLCGEVPLYYI
# B3: PRRG4, Q9BZD6 (protein)
# chain: MFTLLVLLSQLPTVTLGFPHCARGPKASKHAGEEVFTSKEEANFFIHRRLLYNRFDLELFTPGNLERECNEELCNYEEAREIFVDEDKTIAFWQEYSAKGPTTKSDGNREKIDVMGLLTGLIAAGVFLVIFGLLGYYLCITKCNRLQHPCSSAVYERGRHTPSIIFRRPEEAALSPLPPSVEDAGLPSYEQAVALTRKHSVSPPPPYPGHTKGFRVFKKSMSLPSH
# B4: SH3GL3, Q99963 (protein)
# chain: MSVAGLKKQFHKASQLFSEKISGAEGTKLDDEFLDMERKIDVTNKVVAEILSKTTEYLQPNPAYRAKLGMLNTVSKIRGQVKTTGYPQTEGLLGDCMLKYGKELGEDSTFGNALIEVGESMKLMAEVKDSLDINVKQTFIDPLQLLQDKDLKEIGHHLKKLEGRRLDYDYKKKRVGKIPDEEVRQAVEKFEESKELAERSMFNFLENDVEQVSQLAVFIEAALDYHRQSTEILQELQSKLQMRISAASSVPRREYKPRPVKRSSSELNGVSTTSVVKTTGSNIPMDQPCCRGLYDFEPENQGELGFKEGDIITLTNQIDENWYEGMIHGESGFFPINYVEVIVPLPQ
# B5: SOAT1, P35610 (protein)
# chain: MVGEEKMSLRNRLSKSRENPEEDEDQRNPAKESLETPSNGRIDIKQLIAKKIKLTAEAEELKPFFMKEVGSHFDDFVTNLIEKSASLDNGGCALTTFSVLEGEKNNHRAKDLRAPPEQGKIFIARRSLLDELLEVDHIRTIYHMFIALLILFILSTLVVDYIDEGRLVLEFSLLSYAFGKFPTVVWTWWIMFLSTFSVPYFLFQHWATGYSKSSHPLIRSLFHGFLFMIFQIGVLGFGPTYVVLAYTLPPASRFIIIFEQIRFVMKAHSFVRENVPRVLNSAKEKSSTVPIPTVNQYLYFLFAPTLIYRDSYPRNPTVRWGYVAMKFAQVFGCFFYVYYIFERLCAPLFRNIKQEPFSARVLVLCVFNSILPGVLILFLTFFAFLHCWLNAFAEMLRFGDRMFYKDWWNSTSYSNYYRTWNVVVHDWLYYYAYKDFLWFFSKRFKSAAMLAVFAVSAVVHEYALAVCLSFFYPVLFVLFMFFGMAFNFIVNDSRKKPIWNVLMWTSLFLGNGVLLCFYSQEWYARQHCPLKNPTFLDYVRPRSWTCRYVF
# Target: SARS-CoV-2 M
# Assay: yeast fitness gain over the viral ORF with no human partner (scaled fitness); higher = more likely to interact
# Method: (§1)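 Split mouse DHFR complementation in pooled diploid yeast: human ORFeome clones carry one fragment and viral ORFs the other; barcoded lineages compete in 1 µg/mL methotrexate and fitness is read by barcode sequencing in up to three cultures.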
row,Binder,yeast fitness gain
1,B1,inactive: -0.142
2,B2,inactive: 0.0447
3,B3,inactive: 0.0635
4,B4,inactive: 0.101
5,B5,inactive: 0.0846

# Target: SARS-CoV-2 ORF6
# Assay: as above
# Method: as §1
row,Binder,yeast fitness gain
1,B1,inactive: 0.126
2,B2,inactive: 0.0874
3,B3,inactive: -0.0409
4,B4,inactive: 0.0312
5,B5,inactive: 0.0389

# Target: SARS-CoV-2 NSP1
# Assay: as above
# Method: as §1
row,Binder,yeast fitness gain
1,B2,inactive: 0.0743
2,B3,inactive: 0.0385
3,B4,inactive: 0.0822

# Target: SARS-CoV-2 NSP12
# Assay: as above
# Method: as §1
row,Binder,yeast fitness gain
1,B2,inactive: -0.0481
2,B3,inactive: -0.025
3,B4,inactive: -0.026

# Target: SARS-CoV-2 NSP13
# Assay: as above
# Method: as §1
row,Binder,yeast fitness gain
1,B2,inactive: 0.000775
2,B3,inactive: -0.0203
3,B4,inactive: 0.116
4,B5,inactive: -0.115

# Target: SARS-CoV-2 NSP2
# Assay: as above
# Method: as §1
row,Binder,yeast fitness gain
1,B2,inactive: -0.119
2,B3,inactive: -0.219
3,B4,inactive: -0.0887
4,B5,inactive: -0.136

# Target: SARS-CoV-2 NSP4
# Assay: as above
# Method: as §1
row,Binder,yeast fitness gain
1,B2,inactive: 0.0302
2,B4,inactive: 0.0484

# Target: SARS-CoV-2 NSP5
# Assay: as above
# Method: as §1
row,Binder,yeast fitness gain
1,B2,inactive: -0.0112
2,B3,inactive: 0.0839
3,B4,inactive: 0.0103

# Target: SARS-CoV-2 NSP7
# Assay: as above
# Method: as §1
row,Binder,yeast fitness gain
1,B2,inactive: 0.046
2,B3,inactive: -0.0809
3,B4,inactive: -0.017
4,B5,inactive: -0.144

# Target: SARS-CoV-2 NSP8
# Assay: as above
# Method: as §1
row,Binder,yeast fitness gain
1,B2,inactive: -0.0454
2,B4,inactive: 0.0153

# Target: SARS-CoV-2 ORF3B
# Assay: as above
# Method: as §1
row,Binder,yeast fitness gain
1,B2,inactive: 0.0357
2,B3,inactive: 0.00938
3,B4,inactive: -0.0241

# Target: SARS-CoV-2 ORF7A
# Assay: as above
# Method: as §1
row,Binder,yeast fitness gain
1,B2,inactive: 0.0239
2,B3,inactive: 0.0487
3,B4,inactive: 0.0934
4,B5,inactive: 0.0794

# Target: SARS-CoV-2 ORF7B
# Assay: as above
# Method: as §1
row,Binder,yeast fitness gain
1,B2,inactive: -0.0595
2,B3,inactive: 0.0518
3,B4,inactive: 0.0851

# Target: SARS-CoV-2 ORF8
# Assay: as above
# Method: as §1
row,Binder,yeast fitness gain
1,B2,inactive: -0.0113
2,B3,inactive: -0.07
3,B4,inactive: -0.0857
4,B5,inactive: -0.0525

# Target: SARS-CoV-2 ORF9B
# Assay: as above
# Method: as §1
row,Binder,yeast fitness gain
1,B2,inactive: 0.0979
2,B3,inactive: -0.0107
3,B4,inactive: 0.0276
4,B5,inactive: -0.0966

# Target: SARS-CoV-2 NSP10
# Assay: as above
# Method: as §1
row,Binder,yeast fitness gain
1,B3,inactive: 0.0494
2,B4,inactive: 0.0122
3,B5,inactive: -0.222

# Target: SARS-CoV-2 NSP15
# Assay: as above
# Method: as §1
row,Binder,yeast fitness gain
1,B3,inactive: -0.0468

# Target: SARS-CoV-2 NSP16
# Assay: as above
# Method: as §1
row,Binder,yeast fitness gain
1,B3,inactive: -0.196
2,B4,inactive: 0.0381

# Target: SARS-CoV-2 NSP6
# Assay: as above
# Method: as §1
row,Binder,yeast fitness gain
1,B3,inactive: -0.0606
2,B4,inactive: 0.0873

# Target: SARS-CoV-2 NSP9
# Assay: as above
# Method: as §1
row,Binder,yeast fitness gain
1,B3,inactive: -0.111
2,B4,inactive: -0.0307

# Target: SARS-CoV-2 ORF10
# Assay: as above
# Method: as §1
row,Binder,yeast fitness gain
1,B3,inactive: -0.0871
2,B4,inactive: 0.0297

# Target: SARS-CoV-2 S
# Assay: as above
# Method: as §1
row,Binder,yeast fitness gain
1,B3,inactive: -0.166
2,B4,inactive: -0.00767

# Target: SARS-CoV-2 N
# Assay: as above
# Method: as §1
row,Binder,yeast fitness gain
1,B4,inactive: -0.172

# Target: SARS-CoV-2 NSP14
# Assay: as above
# Method: as §1
row,Binder,yeast fitness gain
1,B4,inactive: 0.0155
